# According to the BET-seq Pho4 binding data (Le et al. 2018):
# The other results are listed elsewhere or left out. These are noisy estimates, calculated here from bound and input reads.
# Molecular target: T1, Pho4 (S. cerevisiae) (UniProt P07270)
# T1 sequence: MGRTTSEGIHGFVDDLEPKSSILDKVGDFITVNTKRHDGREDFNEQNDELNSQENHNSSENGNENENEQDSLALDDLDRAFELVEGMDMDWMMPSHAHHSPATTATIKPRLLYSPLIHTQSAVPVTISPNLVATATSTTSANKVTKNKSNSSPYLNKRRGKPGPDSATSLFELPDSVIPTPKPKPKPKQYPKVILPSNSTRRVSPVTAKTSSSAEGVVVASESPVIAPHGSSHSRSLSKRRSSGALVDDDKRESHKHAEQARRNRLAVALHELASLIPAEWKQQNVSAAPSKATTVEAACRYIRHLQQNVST
# Assay: relative binding free energy (BET-seq); higher = weaker binding
# Conditions: reference: library average
row,Sequence,relative binding free energy [kcal/mol]
1,GCATGCACGTGTGAGG,0.1
2,CTTGTCACGTGTAGGA,0.07
3,GTTCTCACGTGGAGGT,0.13
4,TTGGCCACGTGGAAGG,-0.05
5,TCATTCACGTGGAAGG,0.29
6,GTTCACACGTGAGGAG,0.24
7,TATGGCACGTGTTCTT,-0.01
8,AAGGGCACGTGGCCGG,-0.16
9,TGGGTCACGTGATGGT,0.31
10,GTTGCCACGTGGGCTG,-0.25
11,TGGTGCACGTGGCATA,-0.15
12,TTTCACACGTGTGATT,0.11
13,ATGCGCACGTGGTGGA,-0.16
14,TGAGCCACGTGGTTAT,-0.08
15,GGCGACACGTGGGGGG,-0.05
16,ACTATCACGTGGGTAG,0.06
17,TGGTACACGTGGCTTT,-0.02
18,AGGGTCACGTGCGTCG,-0.08
19,TGACACACGTGTGTTG,-0.07
20,GTGGTCACGTGGATGC,0.14
21,TCATACACGTGTTTGT,-0.1
22,CATGTCACGTGGCATG,0.06
23,AATTGCACGTGATGAT,0.04

row,Sequence,relative binding free energy [kcal/mol]
1,GTTGGCACGTGATCTG,-0.08
2,ATGCACACGTGTTTTG,-0.02
3,GGGTGCACGTGCTAGC,0.03
4,GGATTCACGTGTCGAG,0.27
5,GATGCCACGTGTTGGT,0.09
6,AGCAGCACGTGGGGGC,-0.34
7,TGGCGCACGTGATTTA,0.05
8,ATGGTCACGTGTCGTT,-0.01
9,TATATCACGTGCGAGT,0.29
10,TGGGTCACGTGTGCTC,0.17
11,TTAGGCACGTGAACTT,0.04
12,CAGGTCACGTGGTAGG,0.02
13,TACTTCACGTGAGTTG,0.34
14,CGGGTCACGTGTGAGA,0.24
15,TGGAACACGTGGCAGT,0.02
16,GCTGTCACGTGTTGAA,0.24
17,GATTTCACGTGTCGTA,0.35
18,ATCTGCACGTGCGGTG,-0.06
19,GTATACACGTGTTTTT,0.13
20,TAGCTCACGTGTAGCG,0.26
21,AATTGCACGTGGGATC,0.02
22,AAATGCACGTGCGGTG,-0.11
23,AGAATCACGTGTAAAG,0.3

row,Sequence,relative binding free energy [kcal/mol]
1,AGGCTCACGTGGATGG,0.32
2,AGTCACACGTGGAGGG,0.11
3,GGTATCACGTGCCTGG,0.23
4,GTGTGCACGTGGTGAG,-0.04
5,ACTAACACGTGAGGTT,0.3
6,AGTGTCACGTGTCGGC,0.02
7,TTTGTCACGTGTAAAA,0.29
8,TGAATCACGTGGCGTG,0.05
9,AGAGACACGTGAGGTA,0.25
10,GAATGCACGTGAATTT,0.28
11,ATGGACACGTGGGTTT,-0.15
12,GTCGTCACGTGTAAGT,0.3
13,CATAGCACGTGGTTGG,-0.17
14,TAGGACACGTGTCGGA,0.11
15,TTTGACACGTGGAAGT,0.09
16,GTTTTCACGTGGCTGC,0.23
17,GCAGGCACGTGATTGG,0.07
18,AAAAGCACGTGTTTGG,-0.2
19,TGGATCACGTGGCAGG,0.11
20,TGGTACACGTGGGATC,-0.02
21,AGTCGCACGTGTGGGC,0.02
22,AATTGCACGTGCGTTT,-0.12
23,TCGCTCACGTGAGGGT,0.16

row,Sequence,relative binding free energy [kcal/mol]
1,TTAGTCACGTGTGTTT,0.1
2,TAATTCACGTGGGGTT,0.07
3,TGTAACACGTGTGTTC,0.04
4,GGATACACGTGGTGTC,-0.01
5,CTGGGCACGTGTGGTT,-0.14
6,TTCCACACGTGTGTGT,0.09
7,GCTGGCACGTGCTCGT,-0.04
8,TTATTCACGTGTTTCA,0.26
9,AATTGCACGTGTTTTT,0.02
10,AGATGCACGTGATTTA,0.11
11,AAAGTCACGTGGTAAA,0.19
12,CGTTGCACGTGGTGGG,0.02
13,TACGGCACGTGTTTAA,0
14,GAGATCACGTGGTTAT,0.15
15,GATTGCACGTGTGGAG,0.11
16,TATGACACGTGGTTGA,-0.12
17,ATGAGCACGTGTTCTG,-0.03
18,TGGTTCACGTGTCTAA,0.53
19,TTCTGCACGTGAAGTG,0.05
20,TGGAACACGTGGTCTT,-0.02
21,AAAAGCACGTGGTTAT,-0.09
22,GGGATCACGTGCTGGG,0.22
23,GGTCGCACGTGGAGTG,0.02

row,Sequence,relative binding free energy [kcal/mol]
1,TTTCACACGTGCGGTT,0.01
2,TGTCGCACGTGTCTGG,-0.07
3,GATGTCACGTGAAGAG,0.28
4,GGGGTCACGTGAACAG,0.19
5,AGCTGCACGTGTAGTT,-0.06
6,TGACTCACGTGTGGTA,0.1
7,TGAGCCACGTGTGTGG,-0.15
8,GTGGCCACGTGTGGAT,-0.04
9,AATTGCACGTGGTTCG,-0.13
10,GAGATCACGTGTTAGT,0.06
11,GTAAGCACGTGTCGGA,0.14
12,GATCGCACGTGGAGTG,-0.02
13,ATTAGCACGTGGCGTA,-0.26
14,GAGGGCACGTGTGTGC,-0.03
15,GGCCTCACGTGGGTGT,0.06
16,CTGGTCACGTGTCGGA,0.16
17,AGGTGCACGTGGATAT,-0.08
18,CTGTACACGTGGGGGT,-0.09
19,TATGGCACGTGTATTA,-0.03
20,TTTAACACGTGTCTTA,-0.03
21,CACATCACGTGGGTGT,0.01
22,CATGTCACGTGTTAGA,0.2
23,GTTCACACGTGAGGGA,0.27
